# From the antibiotic and cytotoxicity screens of Wong et al. (2023)
# This is one part of the list.
# Tested on: HSkMC (human skeletal muscle cells)
# Assay: cytotoxicity call (relative viability < 0.9)
# Conditions: 10 µM
row,Structure (SMILES),cytotoxicity call
1,C[C@@H]1CN([C@H](C)CO)C(=O)Cc2cc(NC(=O)CCCCCC(=O)Nc3ccccc3N)ccc2O[C@H]1CN(C)Cc1ccc(Cl)c(Cl)c1,inactive
2,CC12CC(OC1=O)C1(C)CCC3(C)C(=CCC4C5(C)CCC(O)C(C)(C)C5CCC43C)C1C2 (stereo unspecified),inactive
3,CCS(=O)(=O)Nc1ccc2c(c1)C(=O)N(C)[C@H]1CC[C@H](CC(=O)NCCOC)O[C@@H]1CO2,inactive
4,CCCNC(=O)N(C)C[C@H]1Oc2cc(-c3ccc(C)cc3)ccc2S(=O)(=O)N([C@@H](C)CO)C[C@H]1C,inactive
5,O=S(=O)(NCC[C@H]1CC[C@H](NS(=O)(=O)c2ccccc2Cl)[C@@H](CO)O1)c1ccc(Cl)cc1,inactive
6,CN1CCN(C(=O)C[C@@H]2CC[C@H]3[C@@H](COC[C@H](O)CN3S(=O)(=O)c3cccc(Cl)c3)O2)CC1,inactive
7,C[C@@H]1CCCCO[C@H](CN(C)C(=O)Cc2ccccc2)[C@@H](C)CN([C@H](C)CO)C(=O)c2cc(NC(=O)Nc3ccc(F)cc3)ccc2O1,inactive
8,C[C@@H]1CN([C@H](C)CO)C(=O)c2cccc(NC(=O)c3ccc(-c4nccs4)cc3)c2O[C@H]1CN(C)CC1CCCCC1,inactive
9,C[C@@H]1CN([C@@H](C)CO)C(=O)Cc2cc(NC(=O)Nc3ccc(C(F)(F)F)cc3)ccc2O[C@@H]1CN(C)Cc1ccc(C(=O)O)cc1,inactive
10,CCNC(=O)C[C@H]1C=C[C@H](NC(=O)C2CC2)[C@H](CO)O1,inactive
11,COc1ccc(C#Cc2ccc3c(c2)[C@H]2[C@H](CCN2C(=O)Nc2ccc(C(F)(F)F)cc2)[C@@H](CO)N3C)cc1,inactive
